# This is one part of the list.
# B1: SP16663B-bot-321-25-321 (Bacteroides ovatus) (protein)
# chain: DDDDEVTMNSKFYLSTKVFPVDSYEASLSVILKDNSVVVNELQPNYRFVACATERLSKDVKITADSDDNLVSAYNKANDTEYNILPAENYSFTNKTVTIENGESVSGDSIKIELLNVGSLTTEGGYLLPVTISSIEGNNLDALSSNRGVVYLKIQNIHVNVESGQPAEGTLIADRSGWTVKVAPTTRGDAKNLIDGTNSDVARDGGAEYWLTVDIGKVQTLTGIRNKCYASSYSPTAVEVFTSSDGAKWKSIGAVTISKSGTQYIKFSKAVETRYLKYYVKQGPNTVSLTEFDLYAK
# How the values were obtained:
# Assay in all cases: glycan array binding signal (z-score within array); higher = stronger binding
# Conditions in all cases: glycan notation: IUPAC condensed, linker removed
# [1] = target: GlcNAc(b1-3)Gal(b1-4)GlcNAc(b1-3)Gal(b1-4)GlcNAc(b1-3)GalNAc
# Outline: (§1)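 Glycan array data were curated from 3228 arrays in the Consortium for Functional Glycomics database and kept only where the protein sequence was available. Glycan names were converted to IUPAC-condensed notation, and columns mapping to the same glycan were averaged. The binding signal is a within-array Z-score, averaged across arrays of the same protein sequence at different concentrations or buffers and across linkers. Negative Z-scores can be read as non-binding.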
# [2] = target: GlcNAc(b1-3)Gal(b1-4)GlcNAc(b1-3)GalNAc
# Outline: as §1
# [3] = target: GlcNAc(b1-3)Gal(b1-4)GlcNAc(b1-3)[GlcNAc(b1-3)Gal(b1-4)GlcNAc(b1-3)]GalNAc
# Outline: as §1
# [4] = target: GlcNAc(b1-3)Gal(b1-4)GlcNAc(b1-6)[Gal(b1-3)]GalNAc
# Outline: as §1
# [5] = target: GlcNAc(b1-3)Gal(b1-4)GlcNAc(b1-6)[GlcNAc(b1-3)Gal(b1-3)]GalNAc
# Outline: as §1
# [6] = target: GlcNAc(b1-3)Gal(b1-4)GlcNAc(b1-6)[GlcNAc(b1-3)]Gal(b1-4)GlcNAc
# Outline: as §1
# [7] = target: GlcNAc(b1-3)GalNAc
# Outline: as §1
# [8] = target: GlcNAc(b1-3)Man
# Outline: as §1
# [9] = target: GlcNAc(b1-3)[GlcNAc(b1-4)][GlcNAc(b1-6)]GlcNAc
# Outline: as §1
# [10] = target: GlcNAc(b1-3)[GlcNAc(b1-6)]Gal(b1-4)GlcNAc
# Outline: as §1
# [11] = target: GlcNAc(b1-3)[GlcNAc(b1-6)]GalNAc
# Outline: as §1
# [12] = target: GlcNAc(b1-4)Gal(b1-4)GlcNAc
# Outline: as §1
# [13] = target: GlcNAc(b1-4)GlcNAc
# Outline: as §1
# [14] = target: GlcNAc(b1-4)GlcNAc(b1-4)GlcNAc
# Outline: as §1
# [15] = target: GlcNAc(b1-4)GlcNAc(b1-4)GlcNAc(b1-4)GlcNAc(b1-4)GlcNAc
# Outline: as §1
# [16] = target: GlcNAc(b1-4)GlcNAc(b1-4)GlcNAc(b1-4)GlcNAc(b1-4)GlcNAc(b1-4)GlcNAc
# Outline: as §1
# [17] = target: GlcNAc(b1-4)[GlcNAc(b1-6)]GalNAc
# Outline: as §1
# [18] = target: GlcNAc(b1-6)Gal(b1-4)GlcNAc
# Outline: as §1
# [19] = target: GlcNAc(b1-6)GalNAc
# Outline: as §1
# [20] = target: GlcNAc6S(b1-3)Gal(b1-4)GlcNAc
# Outline: as §1
# [21] = target: Kdn(a2-3)Gal(b1-3)GalNAc
# Outline: as §1
# [22] = target: Kdn(a2-3)Gal(b1-3)GlcNAc
# Outline: as §1
# [23] = target: Kdn(a2-3)Gal(b1-4)Glc
# Outline: as §1
# [24] = target: Kdn(a2-3)Gal(b1-4)GlcNAc
# Outline: as §1
# [25] = target: Kdn(a2-3)Gal(b1-4)[Fuc(a1-3)]GlcNAc
# Outline: as §1
# [26] = target: Kdn(a2-6)Gal(b1-4)GlcNAc
# Outline: as §1
# [27] = target: Man(a1-2)Man(a1-2)Man(a1-3)Man
# Outline: as §1
# [28] = target: Man(a1-2)Man(a1-2)Man(a1-6)[Man(a1-3)]Man
# Outline: as §1
# [29] = target: Man(a1-2)Man(a1-3)Man
# Outline: as §1
# [30] = target: Man(a1-2)Man(a1-3)[Man(a1-2)Man(a1-6)]Man
# Outline: as §1
# [31] = target: Man(a1-2)Man(a1-3)[Man(a1-2)Man(a1-6)]Man(a1-6)[Man(a1-2)Man(a1-2)Man(a1-3)]Man
# Outline: as §1
# [32] = target: Man(a1-2)Man(a1-3)[Man(a1-2)Man(a1-6)]Man(a1-6)[Man(a1-2)Man(a1-2)Man(a1-3)]Man(b1-4)GlcNAc(b1-4)GlcNAc
# Outline: as §1
# [33] = target: Man(a1-2)Man(a1-3)[Man(a1-6)]Man(a1-6)[Man(a1-2)Man(a1-3)]Man(b1-4)GlcNAc(b1-4)GlcNAc
# Outline: as §1
# [34] = target: Man(a1-2)Man(a1-6)[Man(a1-3)]Man(a1-6)[Man(a1-2)Man(a1-2)Man(a1-3)]Man
# Outline: as §1
# [35] = target: Man(a1-2)Man(a1-6)[Man(a1-3)]Man(a1-6)[Man(a1-2)Man(a1-2)Man(a1-3)]Man(b1-4)GlcNAc(b1-4)GlcNAc
# Outline: as §1
# [36] = target: Man(a1-3)[Man(a1-6)]Man
# Outline: as §1
# [37] = target: Man(a1-3)[Man(a1-6)]Man(a1-6)[Man(a1-2)Man(a1-3)]Man(b1-4)GlcNAc(b1-4)GlcNAc
# Outline: as §1
binder,measurement,setting,value
B1,glycan array binding signal (z-score),[1],-0.097
same,glycan array binding signal (z-score),[2],-0.536
same,glycan array binding signal (z-score),[3],0.951
same,glycan array binding signal (z-score),[4],-0.368
same,glycan array binding signal (z-score),[5],-0.352
same,glycan array binding signal (z-score),[6],-0.881
same,glycan array binding signal (z-score),[7],0.939
same,glycan array binding signal (z-score),[8],-0.23
same,glycan array binding signal (z-score),[9],-0.112
same,glycan array binding signal (z-score),[10],-0.06
same,glycan array binding signal (z-score),[11],0.065
same,glycan array binding signal (z-score),[12],-0.474
same,glycan array binding signal (z-score),[13],0.392
same,glycan array binding signal (z-score),[14],-0.474
same,glycan array binding signal (z-score),[15],-0.415
same,glycan array binding signal (z-score),[16],0.033
same,glycan array binding signal (z-score),[17],-0.025
same,glycan array binding signal (z-score),[18],1.33
same,glycan array binding signal (z-score),[19],0.408
same,glycan array binding signal (z-score),[20],0.244
same,glycan array binding signal (z-score),[21],0.022
same,glycan array binding signal (z-score),[22],-0.232
same,glycan array binding signal (z-score),[23],-0.059
same,glycan array binding signal (z-score),[24],-0.447
same,glycan array binding signal (z-score),[25],0.41
same,glycan array binding signal (z-score),[26],-0.277
same,glycan array binding signal (z-score),[27],-0.268
same,glycan array binding signal (z-score),[28],-0.366
same,glycan array binding signal (z-score),[29],-0.565
same,glycan array binding signal (z-score),[30],-0.176
same,glycan array binding signal (z-score),[31],0.09
same,glycan array binding signal (z-score),[32],0.023
same,glycan array binding signal (z-score),[33],0.083
same,glycan array binding signal (z-score),[34],0.46
same,glycan array binding signal (z-score),[35],-0.288
same,glycan array binding signal (z-score),[36],0.486
same,glycan array binding signal (z-score),[37],-0.553

# From the supplement of paper PMC8728848
